Inconclusive results, whose numbers are uncertain, are shown with a selection of clear calls. No potency is given beside an inconclusive call; the fits are too rough. Activity calls are given as the source filed them. The call rests on the fitted dose curve; in most records, active means well fitted inhibition curve with a large enough effect; inconclusive means small, poorly fitted or top-dose-only effect; inactive means no such curve, though single readings can be large or run the other way.
Experiment: NS1 protein of Zika virus - qHTS assay to identify small molecule inhibitors in human HEK 293 cells (AID 1347053); further: nearly all actives have a fitted effect of over 55% in size
Settings: HEK293 ZIKV MR766 infection, NS1 TR-FRET, 24 h; series mostly up to 46.1 µM
Outline: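 Following 20 h seeding, HEK 293 cells took compound, then 1 h later ZIKV MR766 (MOI = 0.5). Incubation ran 24 h at 37 C before TR-FRET detection of NS1; a drop in signal indicates inhibition.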
Potency means the concentration at half of the fitted maximal effect; tags describe the fitted curve by direction and shape.

| SMILES | Potency |
| --- | --- |
| Cc1c(-c2cccc3c(CCCOc4cccc5ccccc45)c(C(=O)O)n(Cc4cccnc4)c23)c(COc2ccc(N3CCN([S+](=O)([O-])N(C)C)CC3)cc2)nn1C | inconclusive [inhibitor, single point] |
| CC(C)n1cnc2c(NCCc3ccc(O)cc3)nc(-c3csc4ccccc34)nc21 | active: 26.4 µM |
| Cc1ccc(NC(=O)c2cccc(N(C)C)c2)cc1NC(=O)c1ccc(O)cc1 | inactive |
| Nc1ccc(C(=O)Nc2cccc(-c3nc(N4CCOCC4)c4oc5ncccc5c4n3)c2)cn1 | inconclusive [inhibitor, partial curve] |
| NC(=O)c1cccc(-c2cccc(OC(=O)NC3CCCCC3)c2)c1 | inactive |
| CS[C@H]1SC[C@@H]2C(=O)N(C)[C@H](C(C)C)C(=O)OC[C@H](NC(=O)c3cnc4ccccc4n3)C(=O)N[C@H](C)C(=O)N(C)[C@@H]1C(=O)N(C)[C@H](C(C)C)C(=O)OC[C@H](NC(=O)c1cnc3ccccc3n1)C(=O)N[C@H](C)C(=O)N2C | active: 0.0166 µM |
| CN(C)CCOc1ccc(-c2nc(-c3ccc4c(c3)CCC4=NO)c(-c3ccncc3)[nH]2)cc1 | inconclusive [inhibitor, single point] |
| CN1CCC(COc2cnc(-c3cccc(Cn4nc(-c5cccc(C#N)c5)ccc4=O)c3)nc2)CC1 | inconclusive [inhibitor, single point] |
| COc1ccc2cc([S+]([O-])Cc3ncc(C)c(OC)c3C)nc2c1 | inconclusive [inhibitor, single point] |
| CC[C@]12C=CCN3CC[C@@]4(c5cc([C@@]6(C(=O)OC)C[C@H]7C[C@@H](C(C)(F)F)CN(Cc8c6[nH]c6ccccc86)C7)c(OC)cc5N(C)[C@H]4[C@@](O)(C(=O)OC)[C@H]1OC(C)=O)[C@@H]32 | active: 7.43 µM |
